In the supplement of paper PMC3334620:
Over roughly 33,000 sequences, “E-score (-0.5 to 0.5)” has its median near -0.035; the highest 2% begin near 0.35. The list shows a part of the results.

Each sequence was assayed against T1, Pdr3 (UniProt P33200) (assay: PBM E-score (8-mer binding enrichment) (E-score (-0.5 to 0.5)); higher = stronger / more preferred TF binding; most listed sequences are background and not binding sites). Details: protein concentration: 200 nM; construct: GST-full length.
T1 sequence: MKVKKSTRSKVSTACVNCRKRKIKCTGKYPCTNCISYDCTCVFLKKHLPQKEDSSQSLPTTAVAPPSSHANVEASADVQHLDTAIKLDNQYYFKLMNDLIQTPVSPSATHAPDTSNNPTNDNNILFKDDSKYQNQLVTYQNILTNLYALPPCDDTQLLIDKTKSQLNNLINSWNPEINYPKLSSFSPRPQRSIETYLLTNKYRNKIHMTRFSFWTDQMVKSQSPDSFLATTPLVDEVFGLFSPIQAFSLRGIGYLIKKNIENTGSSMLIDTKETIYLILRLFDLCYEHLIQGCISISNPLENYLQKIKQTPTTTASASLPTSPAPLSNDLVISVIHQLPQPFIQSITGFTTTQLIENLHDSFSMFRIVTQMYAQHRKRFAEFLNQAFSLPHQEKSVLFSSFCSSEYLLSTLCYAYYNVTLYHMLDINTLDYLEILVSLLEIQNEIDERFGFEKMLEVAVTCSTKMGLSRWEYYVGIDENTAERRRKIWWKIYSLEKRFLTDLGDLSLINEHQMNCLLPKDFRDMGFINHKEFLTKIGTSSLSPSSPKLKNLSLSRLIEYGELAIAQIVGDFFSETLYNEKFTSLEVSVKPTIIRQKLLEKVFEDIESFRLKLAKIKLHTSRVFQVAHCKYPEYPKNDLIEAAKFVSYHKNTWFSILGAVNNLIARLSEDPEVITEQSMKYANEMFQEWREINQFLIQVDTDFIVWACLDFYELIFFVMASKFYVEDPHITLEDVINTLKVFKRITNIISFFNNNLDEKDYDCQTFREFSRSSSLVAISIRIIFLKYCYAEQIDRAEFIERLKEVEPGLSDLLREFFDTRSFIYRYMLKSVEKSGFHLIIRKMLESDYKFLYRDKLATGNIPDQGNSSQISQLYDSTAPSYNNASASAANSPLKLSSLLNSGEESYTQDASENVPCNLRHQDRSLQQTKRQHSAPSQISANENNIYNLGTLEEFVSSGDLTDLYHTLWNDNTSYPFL
Summary of the method: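 Masliner-normalised scans of fluorescent anti-GST signal were the basis for scoring. That signal came from GST-tagged yeast transcription factors applied at about 100-200 nM to double-stranded universal all-10-mer Agilent arrays on fresh or once-stripped slides. Each ungapped eight-base word, pooled with its reverse complement, received an E-score from the Universal PBM Analysis Suite.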

Sequence	PBM E-score
GCCAAACC	0.0626
GTGAGACA	0.00796
ATCCTATC	0.0308
ATAGGAAA	-0.00732
AGTCCTTC	-0.21
ATAATTTC	0.182
GCTCCTCA	-0.236
AGTCAGTA	-0.109
ATGTCCGC	0.223
CTGTCTGA	-0.0812
TCTGTCAA	-0.168
CTCGTATC	-0.0772
CAACAGTC	-0.241
CGGTTTCC	0.268
AATCACGA	-0.0373
CCCTAGGA	-0.0471
AGGTACAT	-0.32
TTAGATAA	-0.189
CGTGCATA	-0.0353
GACATCGC	-0.0124
ATAAGGTG	-0.0163
ATGGTCCA	-0.203
TCGGACAA	0.297
GAATTATC	-0.00046
CACAAAAC	0.0928

Sequence	PBM E-score
CCCCATCC	0.144
CCTACATC	0.086
GCTCATCA	-0.0721
ACAGACAC	-0.0661
CGTGCTTA	0.0586
ACTATTCT	-0.045
GCCATCCC	0.147
CTCGCGTC	0.083
CAATATAC	-0.00737
AGTTGACA	-0.022
CCGGCGTC	0.273
ACCGCATA	0.0305
ACACCGAT	-0.179
TGAGCAAA	-0.0992
AGAACGCA	-0.0199
TCGATCAA	-0.0862
CCAAGGAC	-0.202
CAAGCTGC	-0.0639
CAATAACA	-0.0386
AGTGCTAC	-0.316
AGAATTGC	0.0115
CTTCGAAG	-0.0703
GATCGTGC	0.0812
GAAAAGCA	-0.112
CACCAGAC	-0.0166

Sequence	PBM E-score
AACGGTAG	0.0653
GCACTGGC	-0.121
ATGCTTAC	-0.358
CAAATTTA	0.0732
CATGCGAC	-0.0928
ACTCGTCC	0.0462
GAGCACAA	0.0998
CCGCCGCC	0.244
GCAAGCAA	-0.015
AATTGGAG	-0.07
ATCCTCAG	0.0362
CGCCTCGA	-0.00383
AACAAAGC	0.0302
ATCTTGTG	-0.202
AAGGAAGT	0.0783
CATAACCG	0.135
CCCCGGCC	0.0967
CCACCGCA	0.00962
TACATTCA	-0.161
TACAGACA	-0.0889
CCTTCCGA	0.323
GGTTTTAC	-0.217
TGACGACA	-0.0763
CCCGCGCA	0.288
ACGCAAAA	0.0276

Sequence	PBM E-score
CCCCTACA	-0.222
AGTTTCAT	0.101
GCAGCATA	-0.124
AGTGTCAT	-0.037
AAGATAAA	0.012
GCTTCACC	-0.103
CTCATCAG	0.0537
AGGACCGA	-0.0353
CAGCGTGA	-0.113
AGGATTTA	-0.0298
ATGTTTAG	-0.0411
TCTCCCAA	-0.199
AAGCGGTA	-0.0936
ACGCGAGG	-0.0432
CCTCTATC	-0.0908
AGGTTTGC	-0.129
ACTATGGC	-0.107
GGTGCGCA	0.191
ACAGATGT	-0.0767
GCGCGCGA	0.308
ACTTGGAG	-0.0985
AGTCGACT	0.0493
GACGAAAC	-0.165
ACATTCCC	0.154
AGTGTGGA	-0.0572

Sequence	PBM E-score
ATTCGACG	0.0473
ATACCCAC	0.0633
TATTCAAA	0.00324
AATGGTGC	0.0972
AGGGGGGA	-0.201
ATTCTTCA	-0.101
CACTGGGA	-0.181
TAGTTCCA	0.0392
AATATCTG	0.0304
CTGATGTC	0.169
ACTGAACC	0.00178
AACGGCGA	0.265
GGGCATCA	-0.133
CGGTACAC	0.0159
GACTGATA	-0.093
AGCTCCGC	0.287
ACTAACGC	0.0417
AACAAGAC	0.0408
GAGCGTCC	-0.174
AATGGACG	0.158
AGAGTCGC	-0.0813
ACTCCTAG	-0.216
ATGACACC	-0.216
TCGGAACA	0.483
GGGGCTGA	-0.13

Sequence	PBM E-score
ATCGATTA	0.0272
GCACTACA	-0.283
ACGTATCT	-0.128
CCAATGCC	0.0068
GAAACCGC	0.278
AATGTTGG	-0.0119
ATTTAACG	0.0331
AAGGGCCT	-0.167
CGTAGCCC	-0.141
ACAGATTA	-0.204
AGGATGCC	-0.0876
AGTAGAAC	-0.289
ACCTTAGA	-0.126
AGAAGCTG	-0.0532
AGCATTCG	-0.083
ATCATAAC	0.00954
GGATCTTA	0.118
CTAGAAGC	-0.166
CCAGTAGA	-0.177
TATCCCGA	0.305
CAGGTCTC	-0.332
CAAAAAGC	0.0377
CGCGCGGC	0.373
ATCTTAAC	-0.103
ATTGTCCA	-0.00495

Sequence	PBM E-score
AGGTTTAG	-0.336
AACAATTC	0.0336
AGTATAAC	-0.279
CGGAGTCA	0.26
CAGGGCCG	-0.0183
ATTGCTGC	0.0872
CAACCCTC	-0.103
GGTTAACA	0.123
CCCGGCTA	0.201
CTATTAAA	0.0349
CCTGGCAC	-0.122
AATTAGTG	0.0606
GAATCCCA	0.105
TCGTTCAA	-0.125
AGTGTAGG	-0.235
ACTCAAGT	-0.281
GGGCTACA	-0.149
TGCGGACA	0.237
CACAGAGC	-0.149
AGATTTTG	-0.038
GACATAAC	0.0732
CACCCGCA	0.115
AACAACAT	-0.0801
GCGCTTAC	0.0463
GGACCTCA	-0.0418

Sequence	PBM E-score
GCTTCAAA	-0.0867
ATGAGGGC	0.027
AGAACATC	-0.1
AATGTGCG	0.151
ACAAAGGC	-0.11
AACGTGCC	0.0825
GGCACTGA	0.0182
AGCTTCTG	0.0299
CTAACTTC	-0.0626
CACGTGCA	-0.231
CTTAGCAA	-0.114
ACTGATTC	-0.0772
GAAATTCA	0.136
AACCTATG	-0.285
CGGTAAGC	0.0908
AGCTTAAA	-0.242
CCGCAAGC	0.0626
GTCGCGAC	0.38
CACCTCTA	-0.0528
CTGTTAAC	-0.00392
CCTTACCA	-0.318
CCAGCACC	-0.143
ACTTAAAG	-0.307
AATGTTAT	0.00821
ACCACCCC	-0.102

Sequence	PBM E-score
CAGGGCCC	0.0314
CGTATTTA	0.164
AGGCTACA	-0.254
ACTCTCAA	-0.409
AAGGTTAG	-0.185
CGATCAGC	0.115
GGCCAGTA	0.0807
AGATCCCG	0.4
CTACAATC	0.109
CCGACAGG	0.178
ATCGCGTG	0.0667
CAATACAG	-0.0184
CTTTGGAA	-0.0819
CGGATATA	0.346
CGCTGCTC	0.0177
CCTTAATC	-0.0473
AAATTCGC	0.0536
TAAACAAA	-0.159
CGGCTTGA	0.148
